Data reported in PubChem BioAssay AID1468 (National Center for Advancing Translational Sciences (NCATS), 2008).
Among all 280,000 compounds or so, about 1,100 (0.39%) were called active. Inconclusive means that the source gave no clear call. Such entries were picked first, then a sample of the others. Calls come from the whole dose curve; as a rule, active = well fitted inhibition curve with a large enough effect; inconclusive = small, poorly fitted or top-dose-only effect, or effect the other way; inactive = flat fitted curve, though single readings scatter. No potency is given beside an inconclusive call; the fits are too rough.

The molecules below were run against Microtubule-associated protein tau (Homo sapiens) (UniProt P10636) (assay: qHTS for Inhibitors of Tau Fibril Formation, Fluorescence Polarization). Conditions: K18 P301L tau heparin fibrillization, Alexa594 FP, 6 h; series mostly up to 57.7 µM; activity, negative = inhibition: at the top concentration.
Summary of the method: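 Human tau K18 […] P301L fragment, 15 uM unlabeled plus 0.24 uM Alexa 594-labeled tau (final), with compound and 20 uM heparin in 100 mM sodium acetate pH 7; 6 hr at 37 C, then Alexa 594 FP read.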
% is set by controls: 0 for no effect and ±100 for the full control effect; potency is the fitted concentration of half-maximal effect; tags give direction and shape of the fitted curve.
Note: nearly all actives have a fitted effect of over 55% in size.

Sequence of UniProt P10636 (P10636 whole entry, looked up, the tested form may be a part): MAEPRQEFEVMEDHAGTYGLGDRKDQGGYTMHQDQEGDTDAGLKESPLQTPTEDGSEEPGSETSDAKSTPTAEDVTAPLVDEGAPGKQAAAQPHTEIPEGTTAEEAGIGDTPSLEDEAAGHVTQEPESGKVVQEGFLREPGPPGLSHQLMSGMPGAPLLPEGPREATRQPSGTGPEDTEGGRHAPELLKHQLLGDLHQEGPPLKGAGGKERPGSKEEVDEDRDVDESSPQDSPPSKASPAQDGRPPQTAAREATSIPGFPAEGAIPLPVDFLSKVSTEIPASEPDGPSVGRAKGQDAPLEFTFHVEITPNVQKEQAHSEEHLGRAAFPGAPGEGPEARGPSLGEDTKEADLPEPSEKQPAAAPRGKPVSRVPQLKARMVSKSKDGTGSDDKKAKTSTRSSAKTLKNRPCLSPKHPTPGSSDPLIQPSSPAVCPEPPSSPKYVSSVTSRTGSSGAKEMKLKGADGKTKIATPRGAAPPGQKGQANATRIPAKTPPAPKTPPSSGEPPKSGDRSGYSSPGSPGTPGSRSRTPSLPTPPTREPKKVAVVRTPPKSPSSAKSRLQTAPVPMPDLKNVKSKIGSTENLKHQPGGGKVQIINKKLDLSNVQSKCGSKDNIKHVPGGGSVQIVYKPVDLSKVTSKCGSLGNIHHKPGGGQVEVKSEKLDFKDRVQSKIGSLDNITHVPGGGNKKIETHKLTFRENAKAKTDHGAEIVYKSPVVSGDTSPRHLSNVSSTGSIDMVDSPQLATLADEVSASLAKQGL

| Structure (SMILES) | Potency | activity, negative = inhibition |
| --- | --- | --- |
| O=C(/C=C/c1ccc2c(c1)OCO2)Nc1nncs1 | inconclusive [inhibitor, single point] | – |
| NC(=O)C1(NC(=O)[C@@H]2CC3(CC(c4cccc(NC(=O)c5cc([N+](=O)[O-])cc([N+](=O)[O-])c5)c4)=NO3)CN2C(=O)c2ccccc2)CC1 (stereo partly specified) | inconclusive [activator, partial curve, poor fit] | – |
| CC(=O)OCC(=O)[C@]1(O)C(OC(C)=O)CC2C3CCC4=CC(=O)C=C[C@@]4(C)[C@]3(F)C(O)C[C@]21C (stereo partly specified) | – | inactive: 0.57% |
| O=C(Nc1cccc(-c2cn3ccccc3n2)c1)c1cccc(Cl)c1 | inconclusive [inhibitor, partial curve, poor fit] | – |
| COc1ccc(N2CCN(C(=O)c3cc(N4C(=O)C5C6CCC(C6)C5C4=O)ccc3Cl)CC2)cc1 (stereo unspecified) | inconclusive [inhibitor, partial curve] | – |
| COc1ccc2nc(C)cc(SCC(=O)NNC(=O)COc3ccccc3)c2c1 | inconclusive [inhibitor, full curve, poor fit] | – |
| CCNC(=O)/N=C1/NC(=O)C(C(C)C)O1 (stereo unspecified) | – | inactive: -0.157% |
| N[C@@H](Cc1ccccc1)C(=O)O | – | inactive: 2.02% |
| C=CCN1C(=O)NC(c2ccccc2)(C(F)(F)F)S/C1=C(\C#N)c1nnc(N2CCOCC2)n1-c1ccccc1 (stereo unspecified) | inconclusive [inhibitor, single point] | – |
| COCc1cc(/C=N\NC(=O)c2ccc(Cl)cc2)ccc1OC | inconclusive [inhibitor, single point] | – |
| CC(/C=C/c1ccccc1)=N\NC(N)=S | – | inactive: 2.79% |
| O=[N+]([O-])c1ccc(-c2ccc(/C=N/c3c(-c4ccco4)nc4ccccn34)o2)c(Cl)c1 | – | inactive: -5.65% |
| CCN(CC)c1ccc(NS(=O)(=O)c2cc(-c3cc(C)no3)ccc2C)c(C)c1 | inconclusive [activator, partial curve, poor fit] | – |
| O=C(O)c1cc(N/N=C/c2ccc(OCc3ccccc3)cc2)ccc1Cl | – | inactive: 4.08% |
| COc1ccc(S(=O)(=O)N2c3ccccc3OCC2c2ccccc2)cc1 (stereo unspecified) | inconclusive [inhibitor, partial curve] | – |
| C=CCOC(=O)C1=C(C)NC2(O)c3ccccc3C(=O)C12O (stereo unspecified) | inconclusive [inhibitor, partial curve, poor fit] | – |
| Cc1c(Cl)cccc1-c1ccc(/C=C(\C#N)c2nc3ccccc3[nH]2)o1 | inconclusive [inhibitor, partial curve] | – |
| Cc1cc(=O)[nH]c(N/N=C/c2cccs2)n1 | – | inactive: 5.53% |
| COc1cc([C@@H]2[C@H]3CN(C)CC=C3C(C#N)=C(N)C2(C#N)C#N)cc2c1OCO2 | inconclusive [inhibitor, single point] | – |
| Cc1[nH]c2ccccc2c1Cc1nnc(SCc2ccccc2)o1 | inconclusive [activator, partial curve, poor fit] | – |
| O=C(Nc1ccc([N+](=O)[O-])cn1)c1cc(-c2cccc(Br)c2)nc2ccccc12 | inconclusive [activator, partial curve] | – |

| Structure (SMILES) | Potency | activity, negative = inhibition |
| --- | --- | --- |
| O=C(Nc1ccc2nc(SCC(=O)N3CCCc4ccccc43)sc2c1)c1ccc(Cl)cc1 | inconclusive [inhibitor, partial curve] | – |
| O=C(OCC(F)(F)F)c1cccc(COc2ccc3ccccc3c2)c1 | inconclusive [inhibitor, partial curve, poor fit] | – |
| COc1cc([N+](=O)[O-])ccc1NC(=O)Nc1ccc2c(c1)OCCO2 | inconclusive [activator, partial curve, poor fit] | – |
| Cc1ccc(NC(=O)C2CCCN(S(=O)(=O)c3ccc4c(c3)oc(=O)n4C)C2)nc1 (stereo unspecified) | – | inactive: -6.04% |
| COc1ccccc1NC(=O)c1ccccc1NC(=O)c1cc(Cl)ccc1NC(=O)c1ccco1 | inconclusive [inhibitor, partial curve] | – |
| CC(Sc1nc(=O)cc(N)n1CCc1ccccc1)C(=O)Nc1cccc(Cl)c1 (stereo unspecified) | inconclusive [inhibitor, single point] | – |
| Cc1cc(O)c(/C=N/Nc2ccc(Cl)cc2)c(=O)o1 | – | inactive: 6.89% |
| CCc1ccc(C(=O)c2cn(CC(=O)Nc3ccc4c(c3)OCO4)c3ccc(F)cc3c2=O)cc1 | inconclusive [inhibitor, single point] | – |
| COc1ccc(/C=C/c2nc(-c3ccccc3O)n[nH]2)cc1OC | inconclusive [inhibitor, partial curve] | – |
| CCc1c2c(nc3cccc(SC)c13)COC2 | – | inactive: 9.54% |
| S=c1[nH]nc(-c2ccc3ccccc3n2)n1-c1ccccc1Cl | – | inactive: 3.63% |
| CN(C)c1ccc(NC(=S)N2CCN(c3ncc(C(F)(F)F)cc3Cl)CC2)cc1 | inconclusive [activator, partial curve] | – |
| C=C(C)CNC(=S)NNC(=O)c1cc(C)oc1C | – | inactive: 9.27% |
| COc1ccc(-c2cc3nc4c(c(N5CCC6(CC5)OCCO6)n3n2)CCC4)cc1 | inconclusive [activator, partial curve] | – |
| CO[C@H]1C([C@@]2(C)O[C@@H]2CC=C(C)C)[C@]2(CC[C@H]1OC(=O)/C=C/C=C/C=C/C=C/C(=O)O)CO2 (stereo partly specified) | inconclusive [inhibitor, single point] | – |
| Cn1c(N)c(S(=O)(=O)c2ccc(Br)cc2)c2nc3ccccc3nc21 | inconclusive [inhibitor, partial curve] | – |
| Cc1sc(NC(=S)NC(=O)c2cccs2)nc1-c1ccc(CC(C)C)cc1 | inconclusive [inhibitor, single point] | – |
| O=C(Nc1cccc(Cl)c1)c1cc(N=Nc2ccc([N+](=O)[O-])cc2Cl)ccc1O | active: 8.91 µM | – |
| O=[N+]([O-])c1ccc(C2Oc3ccccc3C3CC(c4ccccc4)=NN32)s1 (stereo unspecified) | inconclusive [inhibitor, single point] | – |
| Cc1ccc(S(=O)(=O)c2nc(-c3ccc(F)cc3)oc2SCC(=O)NCC2CCCO2)cc1 (stereo unspecified) | – | inactive: -9.55% |
